The supplement of paper PMC10126150
Sequences with one replicate were seen in a single cluster, so their values are uncertain.
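Further: ATP exposure 15 min at 22 °C before imaging.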

What follows are sequences tested on ATP (assay: switch fluorescence ratio, 500 uM ATP over buffer (Cy3 cluster intensity, sum of 5 cycles each) (fold (ratio)); higher = stronger signal-on switching upon ATP binding; sequences stand for … in TCGTCGGCAGCGTCAGATGTGTATAAGAGACAGTTTTTTTTTTTTTTTTTTTTTTTTT…TC). Conditions: aptamer strand: ATP DNA aptamer (quencher-CACCTGGGGGAGTATTGCGGAGGAAGG + anchor), 100 nM annealed; ATP concentration: 500 uM; one replicate.
Procedure, shortened: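 Cy3-labelled switching-strand clusters on a modified Illumina MiSeq flow-cell were annealed to 100 nM quencher-labelled ATP aptamer and imaged first in selection buffer, then after 15 min with 500 uM ATP at 22 °C. NaOH stripping and re-annealing separated each of five buffer/ATP cycles, and clusters outside 100-1000 RFU were excluded. The fluorescence ratio sums target-cycle Cy3 intensity over buffer-cycle Cy3 intensity per cluster and averages it per switch-domain sequence.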
In the case of CCATTGGACC, the switch fluorescence ratio is reported as 1.01. With TATAGACATC the switch fluorescence ratio was 1.04. CCTGACTAGG showed a switch fluorescence ratio of 0.913. Work on GTAACCCTGG yielded a switch fluorescence ratio of 1.05. AATCCTATCC was tested, and the switch fluorescence ratio was 1.28. Work on TGGTCGATGT yielded a switch fluorescence ratio of 1.02. Work on AATCGCTAAG yielded a switch fluorescence ratio of 0.986. GTACGGCCAT showed a switch fluorescence ratio of 1.06. TTTTAATAAA was tested, and the switch fluorescence ratio was 1.05. Work on GGCGTCGTCC yielded a switch fluorescence ratio of 0.966. With GCTAGCTGCC the switch fluorescence ratio was 1.05. Work on CGCCAGTATG yielded a switch fluorescence ratio of 1.02. With AAAATCAAGG the switch fluorescence ratio was 1.01. Sequence TACAAATGGT has a switch fluorescence ratio of 1.03. For TGGGGACTCA, the switch fluorescence ratio was 1.05. Work on TTGGCTCGAG yielded a switch fluorescence ratio of 1.09. With TCCATAGTGT the switch fluorescence ratio was 1.02. TTCTCCTCAG was tested, and the switch fluorescence ratio was 1.31. Work on TTGCATTTTA yielded a switch fluorescence ratio of 0.943. For TTATACCAGC, the switch fluorescence ratio was 1.01. TAGAGTCCTG showed a switch fluorescence ratio of 0.974. Work on TAGTTGAGAG yielded a switch fluorescence ratio of 1.01. TCCCGCAAGT was tested, and the switch fluorescence ratio was 2.28. For GTTTGTAATA, the switch fluorescence ratio was 1.04. Sequence GGATCCAAAC has a switch fluorescence ratio of 1.02. Work on GGGGTGCTTA yielded a switch fluorescence ratio of 0.982. Work on TAGCCAAAGC yielded a switch fluorescence ratio of 1.01. AACTCCAGCG was tested, and the switch fluorescence ratio was 1.16. TGGGACTAGA was tested, and the switch fluorescence ratio was 0.965. Sequence TTGAGAGGCG has a switch fluorescence ratio of 1.05. Sequence GTATCACTAT has a switch fluorescence ratio of 0.971. Work on GGGTTTAACA yielded a switch fluorescence ratio of 1.07. TCGTGGAGTG showed a switch fluorescence ratio of 1.01. CTACATGTAT gave a switch fluorescence ratio of 1.02. For AAAATCTGAT, the switch fluorescence ratio was 0.993. CCCCACCGGA was tested, and the switch fluorescence ratio was 0.979. In the case of CTTCGAACCT, the switch fluorescence ratio is reported as 1.85. ACAGTAAAAT gave a switch fluorescence ratio of 0.974. GAATACGTTG gave a switch fluorescence ratio of 1.07. Sequence AAATAACGTA has a switch fluorescence ratio of 1.09. In the case of TGGCTCACTA, the switch fluorescence ratio is reported as 1. With ACAGTAGGCA the switch fluorescence ratio was 1.02. With GAAGTAGTCA the switch fluorescence ratio was 0.941. CGTCCCCA was tested, and the switch fluorescence ratio was 1.16. With GATAATGCCT the switch fluorescence ratio was 1.09. CCCAGGCTTG was tested, and the switch fluorescence ratio was 1.09. For ATAGCTCATT, the switch fluorescence ratio was 1.05. For AGGGACCCGG, the switch fluorescence ratio was 0.963. ACACTTGCGG showed a switch fluorescence ratio of 1.02. GGGCCGAAAG gave a switch fluorescence ratio of 1.01. With TTGCGACTCG the switch fluorescence ratio was 0.989. Work on TGTTTTCCGG yielded a switch fluorescence ratio of 0.98. With AGTCATAATT the switch fluorescence ratio was 1. Sequence GATTAGCGGT has a switch fluorescence ratio of 1.01. AATGGACTGC showed a switch fluorescence ratio of 1.11. GCAACACGGT was tested, and the switch fluorescence ratio was 1.06. For GCGGCCATTG, the switch fluorescence ratio was 1. TCCGTAGTAG showed a switch fluorescence ratio of 3.4. For TAGCCAGTAC, the switch fluorescence ratio was 2.36. AGAGTTCGGG was tested, and the switch fluorescence ratio was 0.997. TCTTATATGT showed a switch fluorescence ratio of 0.955. In the case of AAGGAACCAT, the switch fluorescence ratio is reported as 1.03. Work on ACGTAGGTGG yielded a switch fluorescence ratio of 1.05. ACCGCCTGGA gave a switch fluorescence ratio of 1.04. Sequence CGAAGTGCGG has a switch fluorescence ratio of 0.97. Sequence AGTGGTTGGC has a switch fluorescence ratio of 0.982. GGAACATGCG showed a switch fluorescence ratio of 1.02. With GAAAACAAGA the switch fluorescence ratio was 0.927. In the case of TGACGATCAG, the switch fluorescence ratio is reported as 0.969. CACGTAAAAG showed a switch fluorescence ratio of 1.7. In the case of AATGATCTTA, the switch fluorescence ratio is reported as 1.04. In the case of CCCCTGGGTG, the switch fluorescence ratio is reported as 1.23. In the case of AATTAGAA, the switch fluorescence ratio is reported as 0.971. For GATGGACAAG, the switch fluorescence ratio was 1.04. TTTACTCTAA gave a switch fluorescence ratio of 1.11. GTTTGATGTT gave a switch fluorescence ratio of 0.988. With CCGAGGTAAG the switch fluorescence ratio was 2.46. In the case of CATTGCGCTG, the switch fluorescence ratio is reported as 1.07. With GCTACAACGA the switch fluorescence ratio was 1.05. In the case of TCCATGAGTC, the switch fluorescence ratio is reported as 1.01. For TAAAACGGTA, the switch fluorescence ratio was 1.06. Work on TAAGATCCTC yielded a switch fluorescence ratio of 0.932. GAAGGACCGA gave a switch fluorescence ratio of 1.01. With GTACTGTGCA the switch fluorescence ratio was 1. With GGGTCCTGCT the switch fluorescence ratio was 1.04. For ACATATTCCA, the switch fluorescence ratio was 1.04. TGTTCTGTTA showed a switch fluorescence ratio of 0.983. Sequence TTCTATTGGC has a switch fluorescence ratio of 1.07. GCCGCGGTGG showed a switch fluorescence ratio of 1.01. Sequence GTTAACCTCG has a switch fluorescence ratio of 1.03. In the case of ACATTGGTTG, the switch fluorescence ratio is reported as 0.934. With GCTAGTCATC the switch fluorescence ratio was 1.02. CTCGAGTACT was tested, and the switch fluorescence ratio was 1.05. Work on ACCACATACG yielded a switch fluorescence ratio of 1.55. For TAGTAAGAAG, the switch fluorescence ratio was 0.996. GTGAGGAAAC gave a switch fluorescence ratio of 1.01. Work on TTTGGTAAAC yielded a switch fluorescence ratio of 0.997. Sequence CAAGGCAGCA has a switch fluorescence ratio of 1.01. TATTTTGGT was tested, and the switch fluorescence ratio was 1. Sequence AAGGTTTTGA has a switch fluorescence ratio of 0.986. For GTAGCACTAT, the switch fluorescence ratio was 2.03. For GTCTCTAATA, the switch fluorescence ratio was 0.978. GTGGTGACTG gave a switch fluorescence ratio of 0.999. Work on GTCGCGCCG yielded a switch fluorescence ratio of 0.925. Work on ACGCTGGCCG yielded a switch fluorescence ratio of 1.02. CACCTCCAAG gave a switch fluorescence ratio of 1.12. Work on TATGAAGGTG yielded a switch fluorescence ratio of 2.13. Work on ATTTAATGAC yielded a switch fluorescence ratio of 0.994. Work on ACGGTTGACC yielded a switch fluorescence ratio of 1.05. Sequence TAGTGACACA has a switch fluorescence ratio of 0.974. Work on TACTGTCTAT yielded a switch fluorescence ratio of 1.03. TTTGTGCTAG gave a switch fluorescence ratio of 0.977. Sequence CGGATGGGTC has a switch fluorescence ratio of 1.03. CTGAGTACCT was tested, and the switch fluorescence ratio was 1.12. TCCGTATTTC was tested, and the switch fluorescence ratio was 1.42. In the case of TCGTACAGTC, the switch fluorescence ratio is reported as 0.98. GACATGATTA was tested, and the switch fluorescence ratio was 1.01. TTGAGATGTA gave a switch fluorescence ratio of 0.984. Sequence ATGGTGAA has a switch fluorescence ratio of 0.98. Sequence TTCGTTAATT has a switch fluorescence ratio of 0.995. TTACATTGGG showed a switch fluorescence ratio of 1.03. In the case of ACTATGCGGA, the switch fluorescence ratio is reported as 1.09. CTTGCTTAGA was tested, and the switch fluorescence ratio was 0.982. Work on GAGAGGACGC yielded a switch fluorescence ratio of 0.994. With GGGTTACAAC the switch fluorescence ratio was 0.973. CCAAGTCGGA gave a switch fluorescence ratio of 1.04. With CGGAATCGCT the switch fluorescence ratio was 1.03. CGTTTAGCTG showed a switch fluorescence ratio of 1.11. Sequence CTCGTCACCA has a switch fluorescence ratio of 1.07. CGCATTTCGT gave a switch fluorescence ratio of 1.12. For ATTTAGATAA, the switch fluorescence ratio was 1.04. With TATCTAGAAT the switch fluorescence ratio was 1.02. Sequence GCATGTTTCT has a switch fluorescence ratio of 1.05. For AATATACCTT, the switch fluorescence ratio was 1.81. ACTCTTGGCT gave a switch fluorescence ratio of 1.04. For TGGGGAGTTG, the switch fluorescence ratio was 0.954. With AGGCCCGAAC the switch fluorescence ratio was 1.08. In the case of TTTAGTACCA, the switch fluorescence ratio is reported as 1. In the case of AGGGTTGTAC, the switch fluorescence ratio is reported as 1.04. CAAGGGTAGC showed a switch fluorescence ratio of 0.973. For TCGATTTAAT, the switch fluorescence ratio was 0.983. In the case of CCAGTTCTGG, the switch fluorescence ratio is reported as 1.05. In the case of GTTTTACCGT, the switch fluorescence ratio is reported as 1.04. For TACCTCGGTG, the switch fluorescence ratio was 1.04. For GGTCATATT, the switch fluorescence ratio was 1.06. For CGTCTCAAGG, the switch fluorescence ratio was 1.02. In the case of CCGGACGCCC, the switch fluorescence ratio is reported as 3.47. AATACGCCAT was tested, and the switch fluorescence ratio was 2.31. GCCTTCTTTT was tested, and the switch fluorescence ratio was 0.973. TTTTGGACC gave a switch fluorescence ratio of 1.07. Work on CGCCAGAACG yielded a switch fluorescence ratio of 0.989. ACCTCGGATT was tested, and the switch fluorescence ratio was 0.97. Work on CGTTACTTGC yielded a switch fluorescence ratio of 0.99. With CGGGATTGTG the switch fluorescence ratio was 0.932. CATTTGACGT was tested, and the switch fluorescence ratio was 1.01. ATGGCTTA was tested, and the switch fluorescence ratio was 0.989. For ATGTCGTGAA, the switch fluorescence ratio was 0.995.
